Measured values reported in PubChem BioAssay AID1745853 (National Center for Advancing Translational Sciences (NCATS), 2022).
The list shows a part of the results. Further columns of the screen follow, without active or inactive calls.

What was measured:
Test in all cases: Primary Screen for Target Class Profiling of Small Molecule Inhibitors of Methyltransferases
[1] = target: Glycine N-methyltransferase (Homo sapiens) (UniProt Q14749); conditions: purified enzyme, MTase-Glo SAH luminescence; measured here: GNMT inhibition; at 40 µM; stronger effect = lower value
In short: (§1)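 Each enzyme was assayed with SAM and its substrate. SAH formation detected by MTase-Glo luminescence; single-point 40 uM screen[…].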

[2] = target: Guanidinoacetate N-methyltransferase (Homo sapiens) (UniProt Q14353); conditions: purified enzyme, MTase-Glo SAH luminescence; measured here: GAMT inhibition; at 40 µM; stronger effect = lower value
In short: as §1

[3] = target: Histamine N-methyltransferase (Homo sapiens) (UniProt P50135); conditions: purified enzyme, MTase-Glo SAH luminescence; measured here: HNMT inhibition; at 40 µM; stronger effect = lower value
In short: as §1

[4] = target: Nicotinamide N-methyltransferase (Homo sapiens) (UniProt P40261); conditions: purified enzyme, MTase-Glo SAH luminescence; measured here: NNMT inhibition; at 40 µM; stronger effect = lower value
In short: as §1

[5] = target: Phenylethanolamine N-methyltransferase (Homo sapiens) (UniProt P11086); conditions: purified enzyme, MTase-Glo SAH luminescence; measured here: PNMT inhibition; at 40 µM; stronger effect = lower value
In short: as §1
% is set by controls: 0 for no effect and ±100 for the full control effect.

Compound	activity change, negative = inhibition [1]	activity change, negative = inhibition [2]	activity change, negative = inhibition [3]	activity change, negative = inhibition [4]	activity change, negative = inhibition [5]
COc1ccc2cc3n(c2c1)CC(C)(C(=O)NCC1CCCO1)N(CCc1ccc(Cl)cc1)C3=O (stereo not given)	5.37%	6.08%	9.3%	8.82%	0.809%
COc1cccc(CNC(=O)c2cc3n(n2)CC(C)(C(=O)NCc2ccc(C)cc2)N(C)C3=O)c1 (stereo not given)	8.11%	3.54%	8.48%	1.54%	6.72%
Cn1ncnc1[C@@H]1c2n[nH]c(=O)c3cc(F)cc(c23)N[C@H]1c1ccc(F)cc1	-4.73%	-6.95%	-0.101%	-19.1%	-0.571%
CNC(=O)c1ccccc1Nc1nc(Nc2ccc(N3CCNCC3)cc2)ncc1Cl	-61.5%	-6.26%	-44.5%	-60.9%	-24.3%
CCc1ccc(S(=O)(=O)c2nnn3c2nc(NCC2CCCO2)c2cc(Cl)ccc23)cc1 (stereo not given)	-9.22%	4.01%	-3.34%	1.35%	-7.31%
Cc1ccc(C(=O)C(C)n2nc3n(C(C)C)c(=O)c4ccc(C(=O)NCC(C)C)cc4n3c2=O)cc1C (stereo not given)	6.44%	0.573%	9.73%	4.39%	7.8%
COc1ccc(Cc2ncc3c(n2)CN(C(=O)c2ccc(OC)c(O)c2)C3)cc1	-6.29%	0.559%	-1.05%	-3%	1.97%
O=C(Cn1ccc2cc(S(=O)(=O)N3CCCCC3)ccc21)NCC1CCCO1 (stereo not given)	6.62%	1.63%	6.69%	4.25%	3.85%
